The other results are listed elsewhere or left out.

The assay addresses T1, OsWOX13 (Oryza sativa, UniProt Q5QMM3 1-267).
T1 sequence: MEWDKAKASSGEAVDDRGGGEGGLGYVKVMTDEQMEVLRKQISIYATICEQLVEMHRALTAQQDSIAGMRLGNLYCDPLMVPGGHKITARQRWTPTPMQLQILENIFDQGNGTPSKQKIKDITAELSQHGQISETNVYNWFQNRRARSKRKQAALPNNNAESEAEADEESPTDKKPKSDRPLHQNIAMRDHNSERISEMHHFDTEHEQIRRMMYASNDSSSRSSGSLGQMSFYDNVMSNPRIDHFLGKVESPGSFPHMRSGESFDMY
Put plainly: protein-binding microarray (RPBM); PBS, 2% BSA, 51.3 ng/ul salmon testes DNA, 50 uM zinc acetate, 200 nM TF, 25 C, 1 h; high values mean tight binding. The conditions noted are these: protein: recombinant; tags: N-terminal polyhistidine and DsRed monomer fusion (pET32a); label: CyDye5-dUTP incorporated in the synthesized complementary strand; 3' TTTTT single-stranded linker to array surface; dsDNA, one strand shown. The gist of the method: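 Per-feature fluorescence intensity (arbitrary units), read on an Axon 4000B scanner, is the binding signal. Transcription factors carrying an N-terminal polyhistidine tag and DsRed fusion were expressed in E. coli BL21-CodonPlus and purified on Ni–NTA. A custom Agilent array, made double-stranded by primer extension with Cy5-dUTP and blocked with 2% BSA, was incubated with 200 nM protein in PBS, 2% BSA, salmon testes DNA and 50 µM zinc acetate at 25 °C for 1 h and then washed.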
On to “ATCAATCAACTTACTCGTCATTCTTCCTCCATCTTATAATCGGAGTCACCTAGTGCAG”, for which the binding signal is 12700 fluorescence intensity (a.u.).

Consider “TTGTTCTAATAAATCACGGCGTGATTTTGAATGAAAATGCCGGAGTCACCTAGTGCAG”, for which the binding signal was 8960 fluorescence intensity (a.u.).

As for “ACAAGATTATGACGAACACAACGCCATCACATGCTAGCAGCGGAGTCACCTAGTGCAG”, the binding signal is 5370 fluorescence intensity (a.u.).

As for “CTGTACTAATTTTGATCTAAGAAAATTACGCGATATGGGTCGGAGTCACCTAGTGCAG”, the binding signal was 16100 fluorescence intensity (a.u.).

Turning to “AATGATGGATGTTCCGGCCTAGCTAACCTTTGGATGACCTCGGAGTCACCTAGTGCAG”, the binding signal was 11000 fluorescence intensity (a.u.).

Turning to “GTTTGTAATAATTAAAATTTAATTAATCGTGTATTAATAACGGAGTCACCTAGTGCAG”, the binding signal is 14000 fluorescence intensity (a.u.).

Turning to “ACTGAGGTGATTAAAGAAACTCTTTTAATCACCTAGGTGGCGGAGTCACCTAGTGCAG”, the binding signal is 6320 fluorescence intensity (a.u.).

As for “ACTTGATTTCTCTGTTGGAAGATGGGTATATTTCGAGACCCGGAGTCACCTAGTGCAG”, the binding signal was 17200 fluorescence intensity (a.u.).

Turning to “GGGATTGTTGACTGATAAAGCTGGATTTGAAGAAACAACACGGAGTCACCTAGTGCAG”, the binding signal is 12800 fluorescence intensity (a.u.).

Regarding “ATATATACCAATGATTGTGTCGACATTATATTGCACACTACGGAGTCACCTAGTGCAG”, the binding signal was 4320 fluorescence intensity (a.u.).

“CAGGATAGACTGCTTATAATGCAAACCGATAAAGATGAACCGGAGTCACCTAGTGCAG”: the binding signal was 9400 fluorescence intensity (a.u.).

With “TAGCATATAATTATAAATGTAACTTAGGTGTAAATTATATCGGAGTCACCTAGTGCAG”, the binding signal was 9360 fluorescence intensity (a.u.).

For the sequence “TTCCCATCTTAATCTCATCATCAATTCCCTCGTGTAAACTCGGAGTCACCTAGTGCAG”, the binding signal was 4180 fluorescence intensity (a.u.).

For the sequence “TAGCTAATATTTAATTAATCACGCGTTAATGCGAACATCGCGGAGTCACCTAGTGCAG”, the binding signal was 18300 fluorescence intensity (a.u.).

For “TGGTGTCAAACTGTCAATAATGAAGCAGTGGAGCGCTGGACGGAGTCACCTAGTGCAG”, the binding signal is 4240 fluorescence intensity (a.u.).

For “AGAAGTAAGGTGATGATTTGACAAGACCACAGCTAATCAACGGAGTCACCTAGTGCAG”, the binding signal is 4580 fluorescence intensity (a.u.).

On to “CAACGCCATAATTGGGGACATCGACAGAGTAGTTACGTGTCGGAGTCACCTAGTGCAG”, for which the binding signal was 12100 fluorescence intensity (a.u.).

Regarding “TTTGATTGATTCATCGTTCTCTCATTTGACTTCATTGCTACGGAGTCACCTAGTGCAG”, the binding signal is 38600 fluorescence intensity (a.u.).

As for “TATATTGGAATTTATTAATTAAAATTAGATCTTCTCTTCACGGAGTCACCTAGTGCAG”, the binding signal is 12600 fluorescence intensity (a.u.).

Turning to “TTATGATTGTATATACCGTTTTCAAACGATTTTATGGTTGCGGAGTCACCTAGTGCAG”, the binding signal was 33500 fluorescence intensity (a.u.).

Take “AGTAAATTGGTGTATGATTAGATTAACATGTTAAATGTATCGGAGTCACCTAGTGCAG”: the binding signal was 53500 fluorescence intensity (a.u.).

As for “TATTGTCCAAAATGATAATTATTTTCAATCCGGAGGAAGTCGGAGTCACCTAGTGCAG”, the binding signal is 4920 fluorescence intensity (a.u.).

Regarding “GCCGACTGATTGCGGTTGTCCCATTGGAGATTGAGGTAATCGGAGTCACCTAGTGCAG”, the binding signal is 31800 fluorescence intensity (a.u.).

For the sequence “GAATTTATTGATTACAAAGAACAGGGACTCTTGTCACGAACGGAGTCACCTAGTGCAG”, the binding signal was 11200 fluorescence intensity (a.u.).

As to “GGTATTTATACAGATGATAGATAACTATTTATACGAATGACGGAGTCACCTAGTGCAG”, the binding signal is 5490 fluorescence intensity (a.u.).

As for “GTTAATTTAGATGCAGTTATGTATATAAACTGTTCGTGGCCGGAGTCACCTAGTGCAG”, the binding signal was 31800 fluorescence intensity (a.u.).

“CCCAATTAGATGTCTTGTGTTGGGTTAGGCCCACTTGAACCGGAGTCACCTAGTGCAG”: the binding signal is 4070 fluorescence intensity (a.u.).

On to “CCGTGATAAATAAACGGACTGAAGGAGGAGGCGGCATGCACGGAGTCACCTAGTGCAG”, for which the binding signal is 3810 fluorescence intensity (a.u.).

In the case of “TTCATTAATCACAGATTCAATTTGCTCCTATATATAATCCCGGAGTCACCTAGTGCAG”, the binding signal was 12700 fluorescence intensity (a.u.).

In the case of “CTGTTGACAGTGAAAATTATGCTTTGGCAGCTGCACTGCGCGGAGTCACCTAGTGCAG”, the binding signal was 20900 fluorescence intensity (a.u.).

With “ATAGCAGCTGTCATCTCCAAATCATTGGAAGCCGGCCTCACGGAGTCACCTAGTGCAG”, the binding signal was 5440 fluorescence intensity (a.u.).

With “TGTTTCTGATCGTGATTAATGGTACGGTGGCTCAAACCATCGGAGTCACCTAGTGCAG”, the binding signal was 10400 fluorescence intensity (a.u.).

In the case of “AGTACTAATTAATCAGCTAGCAGTAGATGACAGTAGCTAGCGGAGTCACCTAGTGCAG”, the binding signal was 18400 fluorescence intensity (a.u.).

With “AGTTTAACTCACTCCAGTGATTAGGCCAGCAGATGGAGTGCGGAGTCACCTAGTGCAG”, the binding signal was 5690 fluorescence intensity (a.u.).

With “TTTGTCAGGATCATAATTATTGATGAATAGTTTATTTAGACGGAGTCACCTAGTGCAG”, the binding signal was 13400 fluorescence intensity (a.u.).

As for “TTTGATCGATCGATCAATTAGCTCGATCTCCATTAACAAGCGGAGTCACCTAGTGCAG”, the binding signal was 11200 fluorescence intensity (a.u.).

Consider “TAAATAAAACAATTAGCACTAGTGAGTGGTTTTCTCTTGACGGAGTCACCTAGTGCAG”, for which the binding signal was 3950 fluorescence intensity (a.u.).

Turning to “AAGGATTAATCGTGCCCTTGATTTGTATGATGAGTTCCGTCGGAGTCACCTAGTGCAG”, the binding signal was 22700 fluorescence intensity (a.u.).

With “CCTGCCAATTATAGTGGTCATTTCTCTAGGGACGGACTGGCGGAGTCACCTAGTGCAG”, the binding signal was 6700 fluorescence intensity (a.u.).

For the sequence “GCTTTGTTTTGTTGATTGATATAGGTATGGATTGAATTCTCGGAGTCACCTAGTGCAG”, the binding signal is 23000 fluorescence intensity (a.u.).

In the case of “ACTGCATTATCGGTGATTACCTAAGTTACCATTTCATAGTCGGAGTCACCTAGTGCAG”, the binding signal is 8680 fluorescence intensity (a.u.).

In the case of “TTTAAATTAGGATAAATCCATTTGACCTTCCCTCAGCTGGCGGAGTCACCTAGTGCAG”, the binding signal was 5980 fluorescence intensity (a.u.).

“GAATTACGTGTATAATTTAATTTAGAATTTTCGATGATATCGGAGTCACCTAGTGCAG”: the binding signal is 3880 fluorescence intensity (a.u.).

With “TCAATTTCAATCAAACTTTCAATTTTGACGTGAACACGTTCGGAGTCACCTAGTGCAG”, the binding signal was 36900 fluorescence intensity (a.u.).

As for “TGAATAATTGACAATTTAACCAGACCATTAATTAATTGTTCGGAGTCACCTAGTGCAG”, the binding signal was 62400 fluorescence intensity (a.u.).

Consider “GGCCTCTTTGATTTGTATAAATTTTGGAGGATTTCAATCCCGGAGTCACCTAGTGCAG”, for which the binding signal is 24000 fluorescence intensity (a.u.).

Take “CAGATAATTTATTCAAGGTGCATCTTAGGGATGTTTGTTTCGGAGTCACCTAGTGCAG”: the binding signal is 33200 fluorescence intensity (a.u.).

As to “GGCAGTGACTAATTAACCTCACGGATGACAGGCGGCGAAACGGAGTCACCTAGTGCAG”, the binding signal is 10300 fluorescence intensity (a.u.).

For the sequence “CTAATAACAAAACAAATTACAGATTTCGCCTGTAATATGCCGGAGTCACCTAGTGCAG”, the binding signal is 9460 fluorescence intensity (a.u.).

In the case of “AAACAAACATGACATAATTACTTTATCATAAATTTGAAAACGGAGTCACCTAGTGCAG”, the binding signal is 9640 fluorescence intensity (a.u.).

Consider “ATCAACTGGTAAATTTACAAGGCAAATTTTGAATCCGTATCGGAGTCACCTAGTGCAG”, for which the binding signal is 8980 fluorescence intensity (a.u.).

Take “ATGATGTGTTAATTCATTTGTTGCTATTGATAAGTTACTTCGGAGTCACCTAGTGCAG”: the binding signal is 4620 fluorescence intensity (a.u.).

As for “GATGGATTGGTAGCGAGCGTGTGAGGAAGTCAGGATTGAGCGGAGTCACCTAGTGCAG”, the binding signal is 3230 fluorescence intensity (a.u.).

Take “CAAGTAAATTATGGTGTATGTATTTCACATGAACAGTCAACGGAGTCACCTAGTGCAG”: the binding signal was 7020 fluorescence intensity (a.u.).

The values are drawn from article PMC7819943, “Rice protein-binding microarrays: a tool to detect cis-acting elements near promoter regions in rice”.
